According to article PMC4336329 (PLoS ONE, 2015):
The campaign covered roughly 310,000 compounds. About 14,000 (4.5%) showed an effect of 50% or more. Effects have a minus sign here. The list shows a part of the results.

Each compound was assayed against human ether-à-go-go-related gene (hERG) potassium channel (human, UniProt Q12809) (assay: primary screen, population patch clamp on CHO cells stably expressing hERG).
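Further: peak tail current of the secondary pulse compared with the same well before compound.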

Chain of human ether-à-go-go-related gene (hERG) potassium channel (Q12809 whole entry, looked up): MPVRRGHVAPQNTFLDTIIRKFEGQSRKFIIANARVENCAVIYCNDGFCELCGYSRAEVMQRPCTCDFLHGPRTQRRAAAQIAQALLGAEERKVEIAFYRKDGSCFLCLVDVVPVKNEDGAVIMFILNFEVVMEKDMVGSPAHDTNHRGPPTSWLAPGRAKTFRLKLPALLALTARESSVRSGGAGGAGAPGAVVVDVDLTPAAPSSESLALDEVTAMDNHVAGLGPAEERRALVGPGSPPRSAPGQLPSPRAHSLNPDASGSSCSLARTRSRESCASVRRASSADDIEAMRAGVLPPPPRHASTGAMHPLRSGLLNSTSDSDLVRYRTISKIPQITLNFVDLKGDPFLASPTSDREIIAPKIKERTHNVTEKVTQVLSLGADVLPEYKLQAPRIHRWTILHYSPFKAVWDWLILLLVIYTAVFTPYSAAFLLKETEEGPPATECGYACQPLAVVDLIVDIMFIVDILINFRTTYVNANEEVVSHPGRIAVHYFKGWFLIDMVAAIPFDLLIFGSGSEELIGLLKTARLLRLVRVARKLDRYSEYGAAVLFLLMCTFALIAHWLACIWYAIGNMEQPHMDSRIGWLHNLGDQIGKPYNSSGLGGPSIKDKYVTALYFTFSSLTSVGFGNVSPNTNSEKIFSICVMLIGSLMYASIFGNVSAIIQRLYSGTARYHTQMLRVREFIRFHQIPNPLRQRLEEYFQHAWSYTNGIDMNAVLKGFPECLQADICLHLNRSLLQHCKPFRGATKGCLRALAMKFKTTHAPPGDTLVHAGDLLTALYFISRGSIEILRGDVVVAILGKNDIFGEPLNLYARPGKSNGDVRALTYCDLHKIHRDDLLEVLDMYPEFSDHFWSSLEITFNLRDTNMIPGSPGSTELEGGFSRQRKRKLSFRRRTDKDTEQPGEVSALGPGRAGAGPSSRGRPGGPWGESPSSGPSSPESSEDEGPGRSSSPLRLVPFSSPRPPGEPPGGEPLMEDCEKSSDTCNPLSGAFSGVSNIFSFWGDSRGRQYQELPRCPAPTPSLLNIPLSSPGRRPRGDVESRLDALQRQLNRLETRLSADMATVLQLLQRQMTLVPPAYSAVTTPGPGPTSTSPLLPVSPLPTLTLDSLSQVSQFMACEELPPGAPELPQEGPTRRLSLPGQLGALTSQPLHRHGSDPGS

| Compound | hERG current change (%, negative = inhibition) at 10uM [%] |
| --- | --- |
| CCOC(=O)[C@@H]1[C@H]2COc3ccccc3[C@H]2N2C(=O)N(c3ccc(OC)cc3)C(=O)[C@]12C | -2.02 |
| COc1cccc(-c2nc(CS(=O)CC(=O)NCc3ccc4c(c3)OCO4)c(C)o2)c1 (stereo not drawn) | -18 |
| COCCN1C(=O)c2ccccc2C(C(=O)Nc2ccc3c(c2)OCCO3)C1c1ccc(F)cc1 (stereo not drawn) | 17.1 |
| Cc1ccccc1Nc1c(N)c(=O)oc2ccccc12 | -5.01 |
| COc1cccc(/C(O)=C2/C(=O)C(=O)N(c3ccccn3)C2c2ccc(OC)c(OC)c2)c1 (stereo not drawn) | 14.7 |
| O=C(CSc1nnc(Cc2cccs2)n1Cc1ccco1)Nc1cccc(Cl)c1 | -13.9 |
| Cc1ccc(CN2CCSc3ccc(C(=O)NCCCN4CCN(C)CC4)cc32)cc1 | -38.7 |
| N#Cc1c(NC(=O)c2ccccc2)sc2c1CCC2 | -2.03 |
| CC1CCCC(NC(=O)c2ccc(COc3ccccc3)o2)C1C (stereo not drawn) | 0.0111 |
| CCOC(=O)CN(C)Cc1cn(C)nc1-c1ccc(Oc2ccccc2)cc1 | -11.5 |
| NNC(=O)c1sc(-c2ccccc2)cc1N | 9.7 |
| CC(C)C(NC(=O)c1c(F)cccc1F)C(=O)N1CCN(c2ccccc2F)CC1 (stereo not drawn) | -1.76 |
| COCc1nnc(NC(=O)C2CC(=O)N(C3CCCC3)C2)s1 (stereo not drawn) | 23.3 |
| COc1ccc(CN(C(=O)c2ccco2)c2ccc(Br)cc2)cc1OC | -25.4 |
| CC(Nc1nc(Nc2ccc(F)cc2)nc(SCC(N)=O)n1)c1ccccc1 (stereo not drawn) | -5.05 |
| Cc1ccc(-n2nnc3c(=O)n(Cc4ccccc4C)cnc32)cc1 | 16.3 |
| COc1ccc(CN2CCN(C(=O)Cn3nc(C(=O)O)c4ccccc4c3=O)CC2)cc1F | -37.4 |
| NNc1ccc2nnc(C(F)(F)C(F)(F)C(F)(F)F)n2n1 | 8.51 |
| O=C(CN1CCN(S(=O)(=O)c2ccc(Cl)cc2)CC1)NC1CC1 | 1.82 |
| O=C(/C=C/c1cc2c(cc1Br)OCO2)NCc1ccc(F)cc1 | -0.267 |
| O=C(c1cc(F)c(F)cc1Cl)N1CCOCC1 | -9.19 |
| N#Cc1cnn(Cc2ccccc2)c1N | 3.48 |

| Compound | hERG current change (%, negative = inhibition) at 10uM [%] |
| --- | --- |
| CSc1ccc(Cn2nnc(C(=O)Nc3ccc(C)c(C)c3)c2N)cc1 | -4.4 |
| CSCCC(CO)NC(=O)OCc1ccccc1 (stereo not drawn) | 2.83 |
| Cc1cc2nc(/N=C(\N)NC(=O)N3c4ccccc4Sc4ccccc43)nc(C)c2cc1C | -38.9 |
| CC(=O)c1ccccc1OCC(O)CN1CCN(c2ccccn2)CC1.Cl (stereo not drawn) | -39 |
| COc1ccccc1NC(=O)c1ccc(NC(=O)CSc2nnnn2C)cc1 | -5.4 |
| CCCCN1C(=O)NC2NC(=O)NC21 (stereo not drawn) | -6.63 |
| CCCCN(C(=O)c1ccco1)c1nnc(-c2cc(OC)c(OC)c(OC)c2)s1 | -9.62 |
| O=C(CSc1ccc2nnc(-c3cccnc3)n2n1)Nc1ccc(F)cc1F | -21.5 |
| CCCC(C(=O)NC(C)(C)C)N(CCN1CCOCC1)C(=O)CNS(=O)(=O)c1ccccc1 (stereo not drawn) | 17 |
| O=C(Nc1nc(-c2ccc(-c3ccccc3)cc2)cs1)c1cnccn1 | -2.53 |
| CCCC(=O)NCCc1cc(OC)c(OC)cc1Br | 5.13 |
| CCOC(=O)N1CCN(C(=S)NC(C)(C)C)CC1 | -7.63 |
| CN(C)C(=S)Nc1ccc2c(c1)OCCO2 | 5.41 |
| CC(C)c1cc(Br)ccc1OCCCN1C(=O)NC(C)(C)C1=O | -17 |
| COc1cc(OC)cc(C(=O)NCC(=O)OC2CCCCC2=O)c1 (stereo not drawn) | -27.6 |
| C/C(=N\NC(=O)c1cccc(Br)c1)c1ccc(Br)cc1 | 16 |
| O=C(O)c1cccc(NC(=S)NC(NC(=O)c2ccco2)C(Cl)(Cl)Cl)c1 (stereo not drawn) | 2.71 |
| Cc1ccc(SCc2[nH]nc3c2C(c2ccc(C)o2)C(C#N)=C(N)O3)cc1 (stereo not drawn) | 16 |
| Cc1ccc(N=C2NC(=O)/C(=C\c3ccc(C)s3)S2)cc1 | 26.5 |
| CC(C)[C@H](NC(=O)N1CCn2c1nc1ccccc12)C(=O)NC1CC1 | -29.6 |
| Cc1cc(Cl)cc(C)c1OCCCCCn1ccnc1 | -28.1 |
| Cc1ccc(N=C2NC(=O)CS2)cc1 | -1.52 |

| Compound | hERG current change (%, negative = inhibition) at 10uM [%] |
| --- | --- |
| C/C(=N\NC(=O)c1ccccc1C)c1ccc(N2CCOCC2)cc1 | 5.21 |
| O=C(CC(CC(=O)c1ccc(Cl)cc1)c1ccccc1C(=O)O)c1ccc(Cl)cc1 | -4.11 |
| CCCCN(CC)CCCNC(=O)c1cn(CC)c2ccc(S(=O)(=O)N3CCc4ccccc4C3)cc2c1=O | -74.9 |
| O=C(c1cc(-c2ccc(Cl)cc2Cl)on1)N1CCOCC1 | -9.72 |
| CC12CC(NC(=O)N1CCc1ccccc1)c1ccccc1O2 (stereo not drawn) | 2.05 |
| CN(C)c1ccc(C=NCCc2ccc(S(N)(=O)=O)cc2)cc1 | 6.19 |
| CCC(=O)c1ccc(OCC(O)CN2CC(C)OC(C)C2)cc1.O=C(O)C(=O)O (stereo not drawn) | 14 |
| Cc1c(C(=O)C(=O)N2c3ccccc3CC2C)c2ccccc2n1C (stereo not drawn) | -13.3 |
| CC(C)(C)n1ncc2c(=O)n(CC(=O)N3CCCCC3)cnc21 | 22.9 |
| O=C(CSc1nc2ccccc2c(=O)n1-c1ccccc1)N1CCc2ccccc2C1 | -23.3 |
| Cc1ccc(C(=O)Nc2ccc3c4c(cccc24)CC3)cc1[N+](=O)[O-] | -1.54 |
| CN1CCc2c(sc(/N=C/c3ccco3)c2C(N)=O)C1 | -12.7 |
| CC1(C)N=C(c2ccc(Cl)cc2Cl)C(=O)N1 | -1.04 |
| O=C(Nc1cccc(Cl)c1)Nc1cc(S(=O)(=O)N2CCCCC2)ccc1Cl | 17.9 |
| COc1ccc(Nc2nc3ccccc3n3cnnc23)cc1 | -6.77 |
| O=C(NC1CCCCCCC1)C1CCN(S(=O)(=O)N2CCC3(CC2)OCCO3)CC1 | 2.09 |
| CCOc1ccc(C(C)=O)cc1NC(=O)/C=C\C(=O)O | -19.3 |
| CCCc1ncc(C[n+]2ccccc2C)c(N)n1.Cl.[Cl-] | 14.7 |
| C#CCOCCOCCOCCNc1nc(N2CCN(C(=O)Cn3cc(CCO)nn3)CC2)nc(N2CCN(C(=O)[C@H](C(C)C)n3cc(CCO)nn3)CC2)n1 | 4.31 |
| COc1ccc(C(=O)COC(=O)CCN2C(=O)[C@@H]3[C@H](C2=O)[C@@H]2C[C@H]3C(Br)C2Br)cc1 (stereo partly drawn) | 11.8 |
| Cc1ccc(C(=O)N/N=C\c2ccc([N+](=O)[O-])s2)cn1 | -13.4 |
| CCn1nc(C)cc1C(=O)N1CCCC(N(C)CCc2ccc(OC)c(OC)c2)C1 (stereo not drawn) | -16.2 |

| Compound | hERG current change (%, negative = inhibition) at 10uM [%] |
| --- | --- |
| COCCCn1c(N)c(C(=O)NCc2ccco2)c2nc3ccccc3nc21 | 4.53 |
| COc1cccc(-c2nc(SC)nc3sc(C(=O)NC(C)(C)C)c(N)c23)c1 | 6.24 |
| COc1ccc(S(=O)(=O)Nc2ccc(-n3cnnn3)cc2)cc1[N+](=O)[O-] | 0.00208 |
| Cc1ccnc(SCC(=O)n2c3c(c4ccccc42)CC(C)CC3)n1 (stereo not drawn) | 6.83 |
| CCn1nc(C)cc1C(=O)Sc1ccc(C)cc1 | 9.87 |
| CCC(=O)c1ccc(OC)c(OC)c1 | 16.3 |
| COc1ccc(NC2CCCN(C(=O)c3cc4ncccn4n3)C2)cc1 (stereo not drawn) | 17.9 |
| Cc1ccccc1-n1c(SC(C)C(=O)N2CCN(C)CC2)nc2ccccc2c1=O (stereo not drawn) | -7.98 |
| Cc1ccc(S(=O)(=O)NC(=O)c2ccc(Br)o2)cc1 | 12.1 |
| C/C(=N\Nc1ccc(F)cc1)c1ccc(N2CCOCC2)c(F)c1 | 4.72 |
| O=c1cccc2n1CC1CC2CN(c2ncnc3c2cnn3-c2ccc(Cl)cc2)C1 (stereo not drawn) | -62.1 |
| CCCC(C(=O)NC(C)(C)CC)N(Cc1ccco1)C(=O)CNS(=O)(=O)c1ccccc1 (stereo not drawn) | -9.97 |
| CC(Sc1nnc(N)s1)C(=O)Nc1ccc(N2CCOCC2)cc1 (stereo not drawn) | 4.88 |
| Cc1ccc(S(=O)(=O)O)c(C)c1N1CCCC1=O | 6.42 |
| COCCN1C=C(C(=O)OC)C(c2ccccc2C(F)(F)F)C(C(=O)OC)=C1 | -8.36 |
| Cl.OC(COc1cccc2ccccc12)CN1CCN(c2ccccn2)CC1 (stereo not drawn) | -49.2 |
| CC(=O)c1ccc(NC(=O)C2CCN(S(=O)(=O)c3cccnc3)CC2)cc1 | -7.82 |
| O=C(O)c1ccc(/C=N/Nc2nc(N3CCCCC3)nc(N3CCCCC3)n2)cc1 | 18.4 |
| COc1ccc(/C=N/NC(=O)c2nnn(-c3nonc3N)c2-c2cccs2)cc1OC | 5.4 |
| CCOc1cccc2sc(=NC(=O)c3ccc(S(=O)(=O)N4CCOCC4)cc3)n(C)c12 | 0.44 |
| CCOCCc1nnc(NC(=O)c2ccc(OC)c(OC)c2)s1 | -0.919 |
